Measured values: a collection of fitness landscapes (doi:10.1016/j.celrep.2020.107928)
In all, about 81,000 sequences were measured (“one-hybrid fitness for binding parS DNA”: median about -0.17, highest 2% from about 0.51 on). This is one part of the list.

B1: Caulobacter ParB omega fusion; a variant is named by its letters at X, in order, B8GW30 (parent)
chain: MESVVVGEPGMSEGRRGLGRGLSALLGEVDAAPAQAPGEQLGGSREAPIEILQRNPDQPRRTFREEDLEDLSNSIREKGVLQPILVRPSPDTAGEYQIVAGERAWRAAQRAGLKTVPIMVRELDDLAVLEIGIIENVQRADLNVLEEALSYKVLMEKFERTQENIAQTIGKSXSHVANXMRLLXLPDEVQSYLVSGELTAXHARAIAAAADPVALAKQIIEGGLSVRETEALARKAPNLSAGKSKGGRPPRVKDTDTQALESDLSSVLGLDVSIDHRGSTGTLTITYATLEQLDDLCNRLTRGI

Variants of: B1
Test: one-hybrid fitness for binding parS DNA (scaled: cognate 1, non-cognate 0); higher = stronger binding
Conditions: with parS DNA site
Procedure, shortened: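 Fitness is the rescaled log change in variant-to-wild-type read ratio, measured by Illumina sequencing of plasmids before and after bacterial one-hybrid selection. The scale puts cognate at 1 and non-cognate at 0. Selection of Caulobacter ParB libraries, four specificity codons randomised, took place in E. coli USO with a HIS3 reporter, site 19 bp from the promoter, over 48 hours at 37°C on M9-minus-histidine with 0.1 mM IPTG and 5 mM 3-AT.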

Row | Variant | one-hybrid fitness for binding parS DNA
1 | SPCT | ≤ 0.2
2 | YVGC | ≤ 0.2
3 | MIPM | ≤ 0.2
4 | TRPP | ≤ 0.2
5 | LAWS | ≤ 0.2
6 | PMRR | ≤ 0.2
7 | QRPS | ≤ 0.2
8 | CYLF | ≤ 0.2
9 | LKLL | ≤ 0.2
10 | LSQD | ≤ 0.2
11 | PILT | ≤ 0.2
12 | LDVS | ≤ 0.2
13 | CLRK | ≤ 0.2
14 | QQMW | ≤ 0.2
15 | ASPN | ≤ 0.2
16 | DQAR | ≤ 0.2
17 | NLRH | ≤ 0.2
18 | CLNC | ≤ 0.2
19 | VANG | ≤ 0.2
20 | QFKA | ≤ 0.2
21 | KLKM | ≤ 0.2
22 | VMRP | ≤ 0.2
23 | FINT | ≤ 0.2
24 | TGRM | ≤ 0.2

Row | Variant | one-hybrid fitness for binding parS DNA
25 | QVEC | ≤ 0.2
26 | AHQI | ≤ 0.2
27 | YLWT | ≤ 0.2
28 | DNVR | ≤ 0.2
29 | TWYC | ≤ 0.2
30 | TITL | ≤ 0.2
31 | RGMP | ≤ 0.2
32 | IKLV | ≤ 0.2
33 | HPHP | ≤ 0.2
34 | GQNR | ≤ 0.2
35 | QIPV | ≤ 0.2
36 | QLII | ≤ 0.2
37 | WPTL | ≤ 0.2
38 | FRNC | ≤ 0.2
39 | FTPS | ≤ 0.2
40 | EHNC | ≤ 0.2
41 | QKSF | ≤ 0.2
42 | DPNC | ≤ 0.2
43 | SKVC | ≤ 0.2
44 | YLSS | ≤ 0.2
45 | WWLS | ≤ 0.2
46 | TWLP | ≤ 0.2
47 | CAEG | ≤ 0.2
48 | LYVL | ≤ 0.2

Row | Variant | one-hybrid fitness for binding parS DNA
49 | QMGW | ≤ 0.2
50 | FGSI | ≤ 0.2
51 | DSMV | ≤ 0.2
52 | PHNY | ≤ 0.2
53 | VSVY | ≤ 0.2
54 | ASGW | ≤ 0.2
55 | ASHN | ≤ 0.2
56 | RLST | 0.939
57 | ETHY | ≤ 0.2
58 | KMVA | ≤ 0.2
59 | LIAC | ≤ 0.2
60 | ALVD | ≤ 0.2
61 | CPMR | ≤ 0.2
62 | GDTG | ≤ 0.2
63 | KRTR | ≤ 0.2
64 | MVGD | ≤ 0.2
65 | TSSV | ≤ 0.2
66 | TKQP | ≤ 0.2
67 | SNWR | ≤ 0.2
68 | PKCF | ≤ 0.2
69 | TMQC | ≤ 0.2
70 | MKYR | ≤ 0.2
71 | QANG | ≤ 0.2
72 | RLQE | ≤ 0.2

Row | Variant | one-hybrid fitness for binding parS DNA
73 | VRTF | ≤ 0.2
74 | QHSL | ≤ 0.2
75 | GGST | ≤ 0.2
76 | QSEN | ≤ 0.2
77 | MEMV | ≤ 0.2
78 | HGVS | ≤ 0.2
79 | QCTI | ≤ 0.2
80 | RKVN | 0.36
81 | SNLY | ≤ 0.2
82 | LENC | ≤ 0.2
83 | VEAG | ≤ 0.2
84 | GMMM | ≤ 0.2
85 | ASIT | ≤ 0.2
86 | VRLE | ≤ 0.2
87 | NRGE | ≤ 0.2
88 | DHKN | ≤ 0.2
89 | KELL | ≤ 0.2
90 | LQTF | ≤ 0.2
91 | QILD | ≤ 0.2
92 | HHER | ≤ 0.2
93 | PMLI | ≤ 0.2
94 | AVMV | ≤ 0.2
95 | ILMG | ≤ 0.2
96 | FCES | ≤ 0.2

Row | Variant | one-hybrid fitness for binding parS DNA
97 | RKRA | 0.774
98 | AFNL | ≤ 0.2
99 | RNQR | ≤ 0.2
100 | DLMR | ≤ 0.2
101 | DYTL | ≤ 0.2
102 | LTYE | ≤ 0.2
103 | SWPT | ≤ 0.2
104 | LLKF | ≤ 0.2
105 | RETN | ≤ 0.2
106 | DNIR | ≤ 0.2
107 | HEWM | ≤ 0.2
108 | RYRD | ≤ 0.2
109 | AHQR | ≤ 0.2
110 | VDYK | ≤ 0.2
111 | CCLT | ≤ 0.2
112 | GLLP | ≤ 0.2
113 | PQSE | ≤ 0.2
114 | VTMN | 0.206
115 | QAPN | ≤ 0.2
116 | DKYT | ≤ 0.2
117 | RQWS | 0.959
118 | AYNC | ≤ 0.2
119 | PNTI | ≤ 0.2
120 | EVPG | ≤ 0.2

Row | Variant | one-hybrid fitness for binding parS DNA
121 | RINA | 0.596
122 | DACC | ≤ 0.2
123 | EPLS | ≤ 0.2
124 | SGRG | ≤ 0.2
125 | KFRG | ≤ 0.2
126 | VFRC | ≤ 0.2
127 | LPRR | ≤ 0.2
128 | ERER | ≤ 0.2
129 | YNTA | ≤ 0.2
130 | PSYC | ≤ 0.2
131 | RTNP | ≤ 0.2
132 | ANQV | ≤ 0.2
133 | NTTC | ≤ 0.2
134 | CSNS | ≤ 0.2
135 | PLWC | ≤ 0.2
136 | EDPE | ≤ 0.2
137 | ISNT | ≤ 0.2
138 | TYAP | ≤ 0.2
139 | RPPF | ≤ 0.2
140 | WESH | ≤ 0.2
141 | PYQC | ≤ 0.2
142 | VLQR | ≤ 0.2
143 | CIHR | ≤ 0.2
144 | PLTM | ≤ 0.2

Row | Variant | one-hybrid fitness for binding parS DNA
145 | KIKL | ≤ 0.2
146 | TKML | ≤ 0.2
147 | SMVG | ≤ 0.2
148 | VMPT | ≤ 0.2
149 | NQGR | ≤ 0.2
150 | TTMY | ≤ 0.2
151 | SAWT | ≤ 0.2
152 | MRRI | ≤ 0.2
153 | YVKR | ≤ 0.2
154 | PSIW | ≤ 0.2
155 | TYNI | ≤ 0.2
156 | PPAK | ≤ 0.2
157 | HMGS | ≤ 0.2
158 | SHDG | ≤ 0.2
159 | SPMR | ≤ 0.2
160 | SALW | ≤ 0.2
161 | CMPT | ≤ 0.2
162 | EAWR | ≤ 0.2
163 | MVSG | ≤ 0.2
164 | VSWC | ≤ 0.2
165 | QLWI | ≤ 0.2
166 | KIQC | ≤ 0.2
167 | RCRA | 0.796
168 | CWYT | ≤ 0.2

Row | Variant | one-hybrid fitness for binding parS DNA
169 | LCTT | ≤ 0.2
170 | ISQK | ≤ 0.2
171 | CLCS | ≤ 0.2
172 | TYVF | ≤ 0.2
173 | VHQS | ≤ 0.2
174 | RTHL | ≤ 0.2
175 | LAYN | ≤ 0.2
176 | KRHQ | ≤ 0.2
177 | CFKR | ≤ 0.2
178 | SASM | ≤ 0.2
179 | TVCY | ≤ 0.2
180 | YWDG | ≤ 0.2
181 | TAQW | ≤ 0.2
182 | VYPR | ≤ 0.2
183 | RRGM | 0.391
184 | LRTH | ≤ 0.2
185 | AHVG | ≤ 0.2
186 | QYGN | ≤ 0.2
187 | QTNF | ≤ 0.2
188 | SGHL | ≤ 0.2
189 | MDSR | ≤ 0.2
190 | NIWG | ≤ 0.2
191 | CLLR | ≤ 0.2
192 | ECWS | ≤ 0.2

Row | Variant | one-hybrid fitness for binding parS DNA
193 | FADC | ≤ 0.2
194 | IKTS | ≤ 0.2
195 | SYPG | ≤ 0.2
196 | TLQY | ≤ 0.2
197 | SHLT | ≤ 0.2
198 | ICSV | ≤ 0.2
199 | SDEV | ≤ 0.2
200 | MYTS | ≤ 0.2
201 | YVIY | ≤ 0.2
202 | LADA | ≤ 0.2
203 | PSEY | ≤ 0.2
204 | YACA | ≤ 0.2
205 | SPFK | ≤ 0.2
206 | SCSQ | ≤ 0.2
207 | DPMG | ≤ 0.2
208 | ERPN | ≤ 0.2
209 | RKRV | ≤ 0.2
210 | QIGF | ≤ 0.2
211 | YKER | ≤ 0.2
212 | LSQF | ≤ 0.2
213 | RTWQ | ≤ 0.2
214 | AALG | ≤ 0.2
215 | RHIC | 0.651
216 | FPPR | ≤ 0.2

Row | Variant | one-hybrid fitness for binding parS DNA
217 | RMWT | 0.904
218 | NLKC | ≤ 0.2
219 | GGHR | ≤ 0.2
220 | QANI | ≤ 0.2
221 | QKPA | ≤ 0.2
222 | TCMT | ≤ 0.2
223 | RWVW | ≤ 0.2
224 | PCNT | ≤ 0.2
225 | IQQN | ≤ 0.2
226 | PSSN | ≤ 0.2
227 | WYFT | ≤ 0.2
228 | WDVL | ≤ 0.2
229 | VEFG | ≤ 0.2
230 | YYKS | ≤ 0.2
231 | WSQV | ≤ 0.2
232 | DIEN | ≤ 0.2
233 | HRKY | ≤ 0.2
234 | SSPD | ≤ 0.2
235 | KAHQ | ≤ 0.2
236 | PFPY | ≤ 0.2
237 | NLNF | ≤ 0.2
238 | CGTA | ≤ 0.2
239 | FDTS | ≤ 0.2
240 | WSYY | ≤ 0.2

Row | Variant | one-hybrid fitness for binding parS DNA
241 | WTHC | ≤ 0.2
242 | HDRC | ≤ 0.2
243 | RRNL | ≤ 0.2
244 | PGRN | ≤ 0.2
245 | CELN | ≤ 0.2
246 | RYQF | 0.207
247 | KAKR | ≤ 0.2
248 | RKFK | ≤ 0.2
249 | PAPC | ≤ 0.2
250 | AMMM | ≤ 0.2
251 | PDQY | ≤ 0.2
252 | HTDR | ≤ 0.2
253 | RASE | ≤ 0.2
254 | RVNK | ≤ 0.2
255 | QFET | ≤ 0.2
256 | YTIT | ≤ 0.2
257 | APMD | ≤ 0.2
258 | SVAL | ≤ 0.2
259 | SGSP | ≤ 0.2
260 | VDRY | ≤ 0.2
261 | QDLQ | ≤ 0.2
262 | MRAY | ≤ 0.2
263 | RNWG | 0.651
264 | TKGT | ≤ 0.2

Row | Variant | one-hybrid fitness for binding parS DNA
265 | DSRK | ≤ 0.2
266 | VNDP | 0.246
267 | RCAE | ≤ 0.2
268 | PAVY | ≤ 0.2
269 | QREK | ≤ 0.2
270 | WYSI | ≤ 0.2
271 | SCGL | ≤ 0.2
272 | RSYL | ≤ 0.2
273 | VLPT | ≤ 0.2
274 | SCTT | ≤ 0.2
275 | AVPQ | ≤ 0.2
276 | LTLD | ≤ 0.2
277 | HWWS | ≤ 0.2
278 | WAHY | ≤ 0.2
279 | DPLR | ≤ 0.2
280 | VRNV | ≤ 0.2
281 | MWCS | ≤ 0.2
282 | IRNS | ≤ 0.2
283 | AASY | ≤ 0.2
284 | EYYF | 0.32
285 | LDRG | ≤ 0.2
286 | IQAS | ≤ 0.2
287 | LTDE | ≤ 0.2
288 | LAAQ | ≤ 0.2

Row | Variant | one-hybrid fitness for binding parS DNA
289 | DRAR | ≤ 0.2
290 | RDSI | ≤ 0.2
291 | AVRI | ≤ 0.2
292 | EPER | ≤ 0.2
293 | TTNA | ≤ 0.2
294 | DVPD | ≤ 0.2
295 | TQIT | ≤ 0.2
296 | SYYC | ≤ 0.2
297 | EKEC | ≤ 0.2
298 | YADA | ≤ 0.2
299 | MYES | ≤ 0.2
300 | AMHT | ≤ 0.2
301 | VHHK | ≤ 0.2
302 | LSGA | ≤ 0.2
303 | NMQR | ≤ 0.2
304 | GSCR | ≤ 0.2
305 | NGPV | ≤ 0.2
306 | PMDC | ≤ 0.2
